PubChem BioAssay AID720584 (National Center for Advancing Translational Sciences (NCATS), 2013)
The shares of active, inactive and inconclusive entries below differ from those in the screen. Potencies of inconclusive entries are left out as doubtful fits. Active and inactive are the calls of the source. Calls come from the whole dose curve; as a rule, active = well fitted inhibition curve with a large enough effect; inconclusive = small, poorly fitted or top-dose-only effect; inactive = flat fitted curve, though single readings scatter.

What follows are compounds tested on Trypanosoma brucei pyruvate kinase (TbPYK) (assay: qHTS of Trypanosoma Brucei Inhibitors: Orthogonal Assay for Cherry-picked Compounds). Settings: recombinant TbPYK, ADP-Glo luminescence, 60 min; activity change, negative = inhibition: at 76.9 µM (top of the series).
How it was run: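 TbPYK/substrate + cpd; initiate w/ 130 uM ADP (final); 60 min RT; ADP-Glo I 10 min, II 10 min; lum. end-point. Buffer: 50 mM TEA pH 7.2, 100 mM KCl, 10 mM MgCl2.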
% is set by controls: 0 for no effect and ±100 for the full control effect; potency is the fitted concentration of half-maximal effect; tags give direction and shape of the fitted curve.
Note: nearly all actives have a fitted effect of over 75% in size.

SMILES | Potency | activity change, negative = inhibition
CC(C)CC1CC(=O)OC1(C)C(=O)CSc1nc2ccccc2s1 (configuration not stated) | inconclusive [inhibitor, partial curve] | –
CCc1ccc(NC(=O)NCC2CCN(c3ccc(OC)cc3)C2)cc1 (configuration not stated) | – | inactive: -29%
CCOC(=O)C1Nc2ccc(C(F)(F)F)cc2C2C=CCC12 (configuration not stated) | inconclusive [inhibitor, single point] | –
CC(C)CN(C(=O)CN1CCN(c2ccc(O)cc2)CC1)c1c(N)n(CC(C)C)c(=O)[nH]c1=O | inconclusive [inhibitor, partial curve, poor fit] | –
O=C1ON=C(c2ccccc2)/C1=C/c1ccc(-c2ccccc2[N+](=O)[O-])o1 | inconclusive [inhibitor, single point] | –
CC1(C)CC(=O)C(CSC(=O)c2ccccc2)C(=O)C1 | active: 14.1 µM | –
O=[N+]([O-])c1cnc(Sc2ccncn2)c([N+](=O)[O-])c1 | inconclusive [inhibitor, single point] | –
CC(=O)SC(C[N+](=O)[O-])c1cn(C(C)=O)c2ccccc12 (configuration not stated) | inconclusive [inhibitor, single point] | –
CC(=O)OCCNc1cc(N2CCN(C)CC2)c2noc3c2c1C(=O)c1ccccc1-3 | inconclusive [inhibitor, full curve] | –
CSc1ccccc1OCc1cc(C(=O)N(C)Cc2ccc(C)o2)no1 | inconclusive [inhibitor, partial curve] | –
Cc1nc(Nc2nc3ccccc3o2)nc(C)c1C | – | inactive: 1.27%
Cc1ccc(-c2nc3ccccc3n2C)o1 | – | inactive: -6.96%
CC1(C)CC(=O)C(C(C2=C(O)CC(C)(C)CC2=O)c2ccco2)C(=O)C1 (configuration not stated) | inconclusive [inhibitor, partial curve] | –
Cc1cc(N=Cc2c(O)ccc3cc(Br)ccc23)no1 | active: 7.08 µM | –
Cc1nn(C)c(Sc2ccccc2N)c1[N+](=O)[O-] | active: 12.6 µM | –
O=c1cc(NCc2ccccc2)[nH]c(=O)[nH]1 | inconclusive [inhibitor, partial curve] | –
CC(C)C1Nc2ccc(C(=O)O)cc2C2C=CCC21 (configuration not stated) | inconclusive [inhibitor, partial curve] | –
Cc1ccc(CN2CCN(/N=C/c3ccc(O)c(O)c3)CC2)cc1 | active: 15.8 µM | –
CCN(CC)c1ccc(C(=C2C=CC(=[N+](CC)CC)C=C2)c2ccccc2)cc1 | inconclusive [inhibitor, partial curve, poor fit] | –

SMILES | Potency | activity change, negative = inhibition
N#CC1=C2SCN(c3ccccc3)CN2C(=O)CC1c1cccs1 (configuration not stated) | active: 2.51 µM | –
CCCc1cc(=O)oc2cc(C)cc(OC(=O)c3ccco3)c12 | – | inactive: -11.1%
COc1ccc(CCNC(=O)/C=C/c2ccco2)cc1 | inconclusive [inhibitor, single point] | –
O=C1C(=Cc2ccc(Cl)cc2)CCc2ccccc21 | – | inactive: 6.73%
Cc1ccc(Cc2c(-c3ccco3)nc3ccc(Cl)cn23)cc1 | inconclusive [inhibitor, single point] | –
CCOc1cc(/C=C2\SC(=N)N(c3nccs3)C2=O)ccc1OCCN1CCOCC1 | inconclusive [inhibitor, single point] | –
COc1cccc(/C=N/N2C(=O)CSC2=S)c1O | inconclusive [inhibitor, partial curve] | –
COc1cc2c(cc1OC)C(c1ccc([N+](=O)[O-])cc1)NCC2 (configuration not stated) | – | inactive: -8.68%
C[C@@H]1CCCCO[C@H](CN(C)C(=O)C2CCCCC2)[C@@H](C)CN([C@H](C)CO)C(=O)c2cc(N(C)C)ccc2O1 | inconclusive [inhibitor, partial curve] | –
O=C1CCCCCCC1Sc1ccccc1[N+](=O)[O-] (configuration not stated) | inconclusive [inhibitor, partial curve] | –
C=CCN1C(=O)/C(=c2\sc3nc(=O)c(Cc4ccccc4Cl)nn3c2=O)c2ccccc21 | active: 39.8 µM | –
COc1cccc(/C=C2\C(=O)C(=O)c3ccccc32)c1 | inconclusive [inhibitor, single point] | –
CCOC(=O)C(=Cc1cc(=O)c(OC)co1)C(=O)OCC | inconclusive [inhibitor, partial curve, poor fit] | –
CC(=O)NC1=NC(=O)/C(=C/c2cn(C(C)=O)nc2-c2ccccc2)S1 | inconclusive [inhibitor, full curve] | –
O=c1cc(O)n(-c2ccccc2)c(=S)[nH]1 | – | inactive: -20.7%
CC1(C)CC(=O)C2=C(C1)OC1=C(C(=O)CC(C)(C)C1)C2c1ccc(O)cc1O | inconclusive [inhibitor, partial curve] | –
Cc1ccc(NC2=C(NC(=O)c3ccccc3)C(=O)c3ccccc3C2=O)cc1Cl | inconclusive [inhibitor, single point] | –
CCOc1ccc(-n2c(SCc3ccc([N+](=O)[O-])cc3)nnc2-c2ccccc2)cc1 | active: 8.91 µM | –
